# The campaign covered roughly 420,000 compounds. About 50,000 (12%) were called active. This list was built around the results that the source calls inconclusive (neither active nor inactive); the mix of calls is not that of the screen. Calls follow the shape of the dose curve; as a rule, active = well fitted inhibition curve with a large enough effect; inconclusive = small, poorly fitted or top-dose-only effect; inactive = flat fitted curve, though single readings scatter. Potencies of inconclusive entries are left out as doubtful fits.
# Test: qHTS for Inhibitors of human tyrosyl-DNA phosphodiesterase 1 (TDP1): qHTS in cells in presence of CPT; also: nearly all actives have a fitted effect of over 55% in size
# Settings: chicken DT40 Tdp1-/-;hTDP1 cells + 20 nM CPT, ATP luminescence, 48 h; activity change, negative = growth inhibition: at 46.2 µM (top of the series)
# Outline: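 Chicken DT40 Tdp1-/- cells stably complemented with human TDP1 were seeded at 400 cells/well in medium containing 20 nM camptothecin, exposed to pin-transferred compounds, and grown at 37 °C for at least 48 hr. Viability was read as ATP luminescence.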
# % is scaled to controls: 0 for no effect and ±100 for the full control effect; potency is read from the fitted curve at half-maximal effect; tags tell the direction and shape of the fitted curve.
SMILES,"activity change, negative = growth inhibition",Potency
COCC1=C(C(=O)OC)C(c2cccs2)n2ncnc2N1 (centres undefined),inactive: 5.76%,–
FC(F)(F)c1nc2ncc(Cl)cc2[nH]1,–,"inconclusive [inhibitor, partial curve]"
CCc1nc2ccc(C(=O)NCCCn3ccnc3)cn2c1N(CC)Cc1cccc(Br)c1,–,"inconclusive [inhibitor, single point]"
COc1ccc(OC)c(-c2c3cc(O)c(=O)cc-3oc3cc(O)c(O)cc23)c1,–,"inconclusive [inhibitor, partial curve, poor fit]"
O=C(NCCc1ccccn1)/C(=C/c1ccco1)NC(=O)c1ccccc1,inactive: -15.7%,–
NC(=O)c1ccc(Br)c(S(=O)(=O)N2CCCCC2)c1,–,"inconclusive [inhibitor, single point]"
O=C(Cn1cc(/C=N/NC(=O)c2cccc3ccccc23)c2ccccc21)Nc1ccc(F)cc1,–,"inconclusive [inhibitor, single point]"
COc1ccc2nc(N3CCC(C)CC3)c(C#N)cc2c1,–,"inconclusive [inhibitor, single point]"
COc1ccc(Cc2nc3ccccc3n2CC(=O)N/N=C/c2ccccc2)cc1OC,–,"inconclusive [inhibitor, single point]"
O=C(NC(=O)N1CCN(C(c2ccccc2)c2ccccc2)CC1)c1ccccc1,–,"inconclusive [inhibitor, single point]"
CCO[C@@H]1OC(C(=O)Nc2ccccc2)=C[C@H](c2ccccc2)[C@H]1CCCO,–,"inconclusive [inhibitor, single point]"
O=C(Oc1ccc(Br)cc1)c1cncc(Br)c1,inactive: -9.78%,–
COc1cc(O)c(C(=O)/C=C/c2ccc(O)c(OC)c2)c(OC)c1,–,"inconclusive [inhibitor, single point]"
CN(Cc1nc(-c2ccccc2)no1)C(=O)c1ccco1,inactive: -1.75%,–
Cc1cc(OI)c(C(C)C)cc1-c1cc(C(C)C)c(OI)cc1C,–,"inconclusive [inhibitor, single point]"
C=C1C(=O)[C@@]23[C@H](O)C[C@@H]4C(C)(C)CC[C@H](O)[C@@]4(C)[C@@H]2CC[C@@H]1[C@H]3O,–,active: 1.03 µM
O=C(Nc1ccccc1Br)C1CCCN1S(=O)(=O)c1cccc2nsnc12 (centres undefined),–,"inconclusive [inhibitor, single point]"
COc1cccc(-c2ccc3c(N)c(C(=O)Nc4cc(F)ccc4F)sc3n2)c1,–,"inconclusive [inhibitor, single point]"
CCCCNCCCOc1cccc(Cl)c1Cl,–,active: 14.6 µM
CN1CCc2nc3sc(C(=O)Nc4ccccc4OC(F)(F)F)c(N)c3cc2C1,–,"inconclusive [inhibitor, single point]"
O=C(CSc1nnc(SCc2ccc(Cl)cc2)s1)c1ccc2c(c1)OCO2,inactive: -3.58%,–
O=c1[nH]n(Cc2ccccc2)c2ccccc12,inactive: 33.4%,–
COc1ccc(C(CCNCc2ccc(F)cc2)c2ccc(F)cc2)cc1 (centres undefined),–,"inconclusive [inhibitor, full curve, poor fit]"
COC(=O)c1c(C)oc2ccc(N(C(=O)c3ccncc3)S(=O)(=O)c3c(C)cc(C)cc3C)cc12,–,active: 1.84 µM
Cc1ccc(C)c(OCCCNCc2ccccc2)c1,–,"inconclusive [inhibitor, single point]"

SMILES,"activity change, negative = growth inhibition",Potency
CN1CCN(CCC(=O)Nc2ccccc2)CC1,inactive: 8.95%,–
CC1=C(C(=O)OCc2ccccc2)C(c2ccc3c(c2)OCO3)NC(=O)N1CCCC(=O)O (centres undefined),–,"inconclusive [inhibitor, full curve]"
CCOC(=O)CP(=O)(c1ccccc1)c1ccccc1,inactive: 6.12%,–
CCN(CC(=O)Nc1cc(Cl)ccc1C)C(=O)C1CC(=O)N(Cc2ccccc2)C1 (centres undefined),inconclusive: -33.9% [inhibitor],–
O=C(c1cccc(S(=O)(=O)N2CCN(c3ccc(F)cc3)CC2)c1)N1CCCC(C(F)(F)F)C1 (centres undefined),–,active: 3.26 µM
O=C(NCc1ccc(Cl)cc1)c1cc(-c2ccco2)on1,inactive: 5.56%,–
COc1ccc(C2C3=C(CCCC3=O)Nc3c(-c4ccccc4)c(C)nn32)cc1 (centres undefined),inactive: -22.8%,–
Cc1cc(C)cc(NC(=S)NCc2ccc3c(c2)OCO3)c1,–,"inconclusive [inhibitor, single point]"
COc1ccccc1C(=O)NC(=O)CSc1nnc(SC)s1,inactive: 4.13%,–
Cc1sc2ncn(CC(=O)N3CCN(c4ccc(Cl)cc4)CC3)c(=O)c2c1S(=O)(=O)N1CCN(c2ncccn2)CC1,–,active: 11.6 µM
COc1ccccc1NC(=S)N(CCc1c(C)[nH]c2ccccc12)Cc1cccs1,–,"inconclusive [inhibitor, single point]"
CSC(=O)CC(=O)NC(=O)c1ccccc1,inactive: -5.21%,–
O=C(Nc1cccnc1)c1ccccc1-c1ccccc1,–,"inconclusive [inhibitor, single point]"
O=c1oc2ccccc2n1Cc1ccccc1Cl,inactive: -8.91%,–
CC(=O)Nc1cc(-c2cccc(F)c2)cn2c(-c3ccccc3)cnc12,–,active: 18.4 µM
O=C(Nc1cccc2ncccc12)C(c1ccccc1)c1ccccc1,–,"inconclusive [inhibitor, single point]"
COc1cc2nc(N3CCCCC3)nc(NC3CC3)c2cc1OC,–,active: 12.6 µM
CCN(C(=O)N(CC)c1ccccc1)c1ccccc1,inactive: -14.1%,–
CCNC(=O)COc1ccc(/C=C2\COc3ccccc3C2=O)cc1OC,–,active: 14.6 µM
Cc1ccc(Cn2c(SCC(=O)C(C)(C)C)nc3ccsc3c2=O)cc1,–,active: 20.6 µM
O=C(CN(Cc1cccs1)C(=O)CNS(=O)(=O)c1ccc(Cl)cc1)NCC1CCCO1 (centres undefined),inactive: -1.88%,–
O=C(Cn1c(=O)c2cccn2c2ccc(F)cc21)NCCCN1CCN(c2ccccc2F)CC1,–,"inconclusive [inhibitor, single point]"
COC(=O)c1ccc2nc(C3CCCCC3)c(CC(C)(C)C)n2c1,–,"inconclusive [inhibitor, single point]"
COc1ccc(C(C)=O)cc1COC(=O)c1cccc(N(C)C)c1,–,"inconclusive [inhibitor, single point]"
S=C(NCc1ccccc1)NCc1ccco1,inactive: -21.8%,–

SMILES,"activity change, negative = growth inhibition",Potency
Cc1cc(C(=O)CSc2nc3ccccc3n2C)c(C)n1C,–,"inconclusive [inhibitor, single point]"
CCCCC(=O)NC(=S)Nc1ccccc1N1CCCCC1,inactive: -13.1%,–
CC(C)(C)c1ccc(C(=O)N2CCN(c3ccc(N4CCOCC4)nn3)CC2)cc1,–,"inconclusive [inhibitor, single point]"
C[C@@H](NS(=O)(=O)c1cc(Cl)ccc1F)[C@H](O)c1ccccc1,inactive: 2.14%,–
COc1ccc(Cn2c(=O)[nH]c3cc(C(=O)N4CCN(c5ccccc5OC)CC4)ccc3c2=O)cc1,–,"inconclusive [inhibitor, single point]"
Cc1ccc(-n2ncc3c(=O)[nH]c(SCC(=O)N4CCN(c5ccccc5)CC4)nc32)cc1,–,"inconclusive [inhibitor, partial curve]"
Cc1cc(N2CCOCC2)n2ncc(-c3ccc(Cl)cc3)c2n1,inactive: 0.698%,–
O=C(CSc1ccc(-c2cccs2)nn1)Nc1ccccc1F,inactive: -10.7%,–
COc1ccc(-c2cc3nc(C4CCN(C(=O)OC(C)(C)C)CC4)c(C(=O)O)cn3n2)cc1,–,"inconclusive [inhibitor, partial curve]"
Cc1nc(SC(C)C)[nH]c(=O)c1Cc1ccccc1,–,"inconclusive [inhibitor, single point]"
Cc1cc(C)n(C(=O)c2ccc(C)c(S(=O)(=O)N3CCCCC3)c2)n1,inactive: -19.3%,–
CCOC(=O)C1=CNS(=O)(=O)NC1c1ccc(C)cc1 (centres undefined),inactive: 3.57%,–
CCNc1nc(OC)nc(SCC(=O)Nc2ccccc2)n1,–,"inconclusive [inhibitor, single point]"
Cc1cccc2sc(NC(=O)CN3C(=O)NC4(CCCC4)C3=O)nc12,inconclusive: -34.3% [inhibitor],–
COc1cccc(-c2cnc3c(NC=O)cc(-c4ccncc4)cn23)c1,–,active: 18.4 µM
COc1ccc2c(C)cc(=S)[nH]c2c1,–,"inconclusive [inhibitor, single point]"
COc1ccc(CCN(C(=O)C(F)(F)F)C(C(=O)NC2CCCCC2)c2ccc(C)s2)cc1OC (centres undefined),–,active: 11.6 µM
CC(C)(C)NC(=O)C(c1ccc(C(F)(F)F)cc1)n1c(=O)c(-c2cc3ccccc3[nH]2)nc2ccccc21 (centres undefined),–,"inconclusive [inhibitor, single point]"
CC(C)C(=O)Nc1cccc(NC(=S)NC(=O)C(c2ccccc2)c2ccccc2)c1,–,"inconclusive [inhibitor, single point]"
COC(=O)C1=C(C(=O)OC)[C@@H]2N(Cc3ccccc3)c3ccccc3[C@@]23C[C@@H](CO)N(C(=O)NC2CCCC2)C3=N1,–,"inconclusive [inhibitor, single point]"
Cc1ccc(C(C(=O)NCC2CCCO2)N(C(=O)c2snc(C(N)=O)c2N)c2ccc(C(C)C)cc2)o1 (centres undefined),–,active: 23.1 µM
Cn1c(/C=C/c2cccc([N+](=O)[O-])c2)c([N+](=O)[O-])c(=O)n(C)c1=O,–,"inconclusive [inhibitor, single point]"
Cc1cc(Br)ccc1NC(=O)CN(C)C(=O)CCSc1ccc(F)cc1,–,"inconclusive [inhibitor, single point]"
CCOC(=O)c1cc2c(=O)n3ccccc3nc2n(Cc2ccco2)c1=NC(=O)c1c(F)cccc1Cl,–,"inconclusive [inhibitor, single point]"
